Data: paper PMC12040169 (PLOS Biology, 2025)
Some of the results follow.

system: T1, C. trachomatis L2/434/Bu expressing GFP (CTL2-GFP); set-up: species or system HeLa; C. trachomatis total inclusion area by high-content imaging, normalised to DMSO; settings: total inclusion area; 28.5 h, 10 µM; inhibitor
T1 construct: L2/434/Bu GFP intracellular growth in HeLa cells
Summary of the method: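 Post-fluorescence-read fixation, DNA staining with Hoechst and high-content imaging; GFP inclusion area and number per well, and nuclei counts, used as proxies for bacterial growth and host viability.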

Structure (SMILES) | % of control remaining
CS(=O)(=O)NCC1(c2ccccc2)CCN(S(=O)(=O)c2ccc(N3CCOCC3)nc2)CC1 [CBK051634] | 41.7051
COc1ccc(S(=O)(=O)N2CCN(Cc3cc(OC)c(OC)c(OC)c3)CC2)cc1 [CBK263330] | 95.6909
Cn1cccc1C(=O)N[C@H]1C[C@@H]2C(=O)N[C@H]3CCN(C(=O)CC(C)(C)C)[C@@H]3C(=O)N2C1 [CBK289271] | 113.151
CC1=C(C(=O)OCC(=O)c2ccc(C)cc2)C2C=C(Br)C=CC2N=C1c1ccc(C)cc1 (stereo not shown) [CBK264079] | 105.383
CS(=O)(=O)Nc1cc2cccnc2c(-c2ccccc2)n1 [CBK061928] | 96.3966
COc1cc(CNc2cncc(-c3ccc4c(c3)OCO4)n2)cc(OC)c1OC [CBK065922] | 108.467
CC(Nc1cc(Cl)c(C(F)(F)F)cc1[N+](=O)[O-])c1ccc2[nH]c(=O)[nH]c2c1 (stereo not shown) [CBK297721] | 83.0664
Cn1c(=O)c2ncn(CC(=O)Nc3cccc(C(=O)O)c3)c2n(C)c1=O [CBK266838] | 104.415
CC(C)(CNC(=O)Cn1cccc(C(=O)NC2CCCCC2)c1=O)c1ccccc1F [CBK286068] | 123.114
COC(=O)c1ccc2c(=O)n(CC3CCCO3)c(SCCO)nc2c1 (stereo not shown) [CBK306041] | 48.226
Cc1cc(Cl)c(OCCN2CCC(C)CC2)c(Br)c1 [CBK265088G] | 100.566
Nc1cccc(-c2cn(C[C@H]3CC4CCN3C[C@@H]4C(=O)NCc3cccnc3)nn2)c1 (stereo partly shown) [CBK289088] | 117.374
COc1cccc2[nH]c(C(=O)N3CCOC(c4cccc(-c5c(F)cccc5F)n4)C3)cc12 (stereo not shown) [CBK285948] | 72.3783
Cc1nc2c(c(=O)[nH]1)CCN(Cc1cn(C(C)C)c3ccccc13)C2 [CBK283991] | 78.0169
CCCCCn1c(-c2ccccc2)n[nH]c1=O [CBK013288] | 81.2199
O=c1c2ccccc2nc2n1CCN(Cc1cccs1)CC2 [CBK284815] | 106.859
CC(C)C(NC(=O)c1cccc(-n2cnnc2)c1)c1cccs1 (stereo not shown) [CBK282442] | 114.583
CCCCNCCOC1CCC[C@@H]1Cl (stereo partly shown) [CBK009839] | 72.2113
CC(=O)Nc1cccc(C(=O)NC2CC(=O)N(C3CCCCCC3)C2)c1 (stereo not shown) [CBK307455] | 53.1924
CC(NC(=O)N1CCN(c2cc(C(F)(F)F)ccn2)CC1)c1ccccc1 (stereo not shown) [CBK162350] | 102.269
Cc1cc(CN2CCN(C(=O)NCCc3ccccn3)CC2)on1 [CBK305637] | 82.1989
CCCCOc1ccc(Sc2nc(C)cc(C)n2)cc1 [CBK009219] | 67.4176
Oc1n[nH]c(-c2ccccc2Cl)c1Cc1c(Cl)cccc1Cl [CBK107935] | 136.196
Cc1nc(CN2CCCC(NCc3ccc4ccccc4c3)C2)no1 (stereo not shown) [CBK305160] | 32.5781
O=C(CSc1nnc(-c2ccccc2O)n1-c1ccccc1)Nc1ccc(N2CCOCC2)cc1 [CBK267874] | 88.59
Cc1cc(N2CCCC2=O)cc(C)c1S(N)(=O)=O [CBK288458] | 68.431
c1cnc2[nH]c(C3CCCC3)c(CN3CCOCC3)c2c1 [CBK285337] | 87.8016

Structure (SMILES) | % of control remaining
Cc1c(C(=O)C2=C(O)C(=O)N(Cc3cccnc3)C2c2ccncc2)cnn1-c1ccccc1 (stereo not shown) [CBK233899] | 108.54
CCN1CCN(C(=O)c2ccc3ccccc3n2)CC1 [CBK200249] | 96.8124
NC(=O)CCC(NC=O)C(=O)O (stereo not shown) [CBK260967] | 102.216
CC(C)CN1C(=O)COC[C@@H]1[C@H](O)c1ccc(NC(=O)C2CCCCC2)cc1 [CBK289687] | 114.383
N#C/C(=C\c1c[nH]nc1-c1ccccc1)c1nc(-c2cccc([N+](=O)[O-])c2)cs1 [CBK267252] | 117.67
O=C(NC1CCS(=O)(=O)C1)c1cnc2c(Cl)cccc2c1O (stereo not shown) [CBK304644] | 83.0045
CCCNC(c1ccccc1)c1ccncc1 (stereo not shown) [CBK028505] | 59.1009
Cc1cc2c(s1)c1cnn(CC(=O)OC(C)C)c(=O)c1n2C [CBK284247] | 67.114
CC(C(=O)N[C@H]1C2CCCCC2[C@@H]1c1ccccc1)N1CCOCC1 (stereo partly shown) [CBK282964] | 106.825
CN(Cc1cccc(C#N)c1)Cc1nc2c(cnn2C)c(=O)[nH]1 [CBK305973] | 18.9094
CN(CC1(C)COC1)C(=O)C(c1ccc(F)cc1)N(C)C (stereo not shown) [CBK281722] | 102.298
COc1ccccc1NC(=O)C1C2NC(=S)NC1(C)Oc1c(OC)cccc12 (stereo not shown) [CBK269013] | 105.239
CSc1cc(-c2cccs2)[nH]c(=O)c1C#N [CBK006350] | 63.312
O=C(NCC1CCCCC1)C1(Cc2ccc(-c3ccncc3)cc2)CCOCC1 [CBK285564] | 101.005
COc1ccc(N(Cc2cccnc2)C(=O)c2ccc(-c3ccccc3)[nH]c2=O)cc1 [CBK283089] | 87.4153
COc1ccc(C(C)C)cc1-c1nccnc1NCC1COC(C)(C)O1 (stereo not shown) [CBK036930] | 110.091
CN1CCN(S(=O)(=O)c2cccc3nsnc23)CC1 [CBK062428] | 88.3905
NNC(=O)COc1ccc2ccccc2c1 [CBK261208] | 105.431
Cc1csc(NC(=O)c2cc(S(=O)(=O)N3CCCC3)cn2C)n1 [CBK295617] | 103.683
Nc1nc(C2COc3ccccc3O2)ncc1S(=O)(=O)c1ccc(Cl)cc1 (stereo not shown) [CBK074808] | 75.4366
COc1ccc(Cn2nc(NC(=O)c3cn(C)c4ccccc34)c3ccccc32)cc1 [CBK048344] | 89.4758
COC(=O)c1sccc1NC(=O)/C=C/c1ccccc1 [CBK057041] | 123.592
CC(C)Cc1ccc(S(=O)(=O)Nc2ccc(C(=O)O)cc2)cc1 [CBK297930] | 51.7537
CCOc1cc(CNC2C3CC4CC(C3)CC2C4)cc(Cl)c1OCC(N)=O (stereo not shown) [CBK265734C] | 143.246
CC(C)(C)OC(=O)N1CCCCC1(C)c1nnc(-c2cccnc2)o1 (stereo not shown) [CBK304714] | 31.9474
COc1ccc(C(=O)Nc2ccccc2O)cc1S(=O)(=O)N1CCCCC1 [CBK269665] | 85.1346
C=CCNc1nccnc1-c1cnc(OC)nc1OC [CBK036922] | 95.9656

Structure (SMILES) | % of control remaining
c1cncc(OCCOc2nsnc2N2CCNCC2)c1 [CBK001825G] | 67.2242
O=C(COc1ccc2ccccc2c1)Nc1ccc(N2CCN(Cc3ccccc3)CC2)cc1 [CBK266104] | 89.6563
COc1ccc(-c2nnc(SCC(=O)c3ccc(F)cc3)n2C2CCCCC2C)cc1 (stereo not shown) [CBK297494] | 95.1138
N#CCCSc1ccn(C2CC(O)C(CO)O2)c(=O)n1 (stereo not shown) [CBK201261] | 140.989
CCS(=O)(=O)NC1CCN(c2nc(C(F)(F)F)nc3ccsc23)CC1 [CBK304593] | 47.2681
c1cncc(CNCc2ccoc2)c1 [CBK001744C] | 94.6081
CCc1nc2ccc(C(=O)N(C)CCN(C)C)cn2c1N(C)C(=O)Cc1ccccc1 [CBK146858] | 96.2233
O=S(=O)(NCc1ccccn1)c1ccc(Br)cc1Br [CBK262291] | 70.1993
O=C(Nc1cccc2ncccc12)c1cccc(Oc2ccccc2)c1 [CBK296716] | 66.1939
COc1cc(-c2cc(C(=O)O)c3c(-c4ccc(C)cc4)n[nH]c3n2)ccc1O [CBK287268] | 68.0414
Cc1ccc(C(=O)NC(CC(C)C)c2nnc3n2CCNCC3)c(F)c1 (stereo not shown) [CBK306817] | 87.9114
NC(=O)C1CCN(Cc2cc3c(cc2[N+](=O)[O-])OCO3)CC1 [CBK261885] | 92.4412
O=C(Cn1nnc(-c2ccccc2Cl)n1)N/N=C/c1cn(Cc2ccc(Cl)cc2)c2ccccc12 [CBK262333] | 58.7862
COc1ccc(C)cc1S(=O)(=O)N(C)CC(=O)Nc1cccc(C(C)=O)c1 [CBK268753] | 107.442
COCC(=O)NCc1cc2n(n1)CCN(Cc1cccs1)C2 [CBK307085] | 108.886
Cc1cc(C2CCCCCN2S(=O)(=O)c2ccc3[nH]c(=O)[nH]c(=O)c3c2)on1 (stereo not shown) [CBK286405] | 94.4219
CCOCCn1cnc2sc(C(=O)Nc3cccc(Cl)c3)c(C)c2c1=O [CBK071854] | 88.0189
CCN(CC)CCN(C(=O)Nc1ccc(C(N)=O)cc1)C(C)c1ccc(OC)c(OC)c1 (stereo not shown) [CBK158962] | 85.5692
CCn1cc(-c2cncn2CCOc2ccc(C)cc2)cn1 [CBK281623] | 111.182
Cc1cc(COc2cc(N3CCCN(Cc4ccc5c(c4)OCO5)CC3)ncn2)no1 [CBK083335T] | 105.736
Cc1oc(C2CC2)cc1C(=O)N1CCn2c(nnc2C2CC2)C1 [CBK283687] | 50.162
Cc1n[nH]c(C)c1Sc1ccccc1/N=C/c1ccc(C(=O)O)cc1 [CBK262055] | 79.2755
CCOC(=O)CCCNC(=O)N1CCN(Cc2ccccc2)CC1 [CBK155664] | 102.936
CN(C)[C@@H]1CN(Cc2cccnc2)C[C@H]1c1cn(C)c2ccccc12 [CBK284875] | 80.763
COc1ccc(-c2nc3c(c(=S)[nH]2)CCCC3)cc1 [CBK020440] | 56.5733
